Experimental data: patent US20080064736A1, “Substituted 2-Pyrrolidone Derivatives as Fungicides and Insecticides” (Bayer Cropscience AG, priority 2004, published 2008)
Read-outs that look alike come from different tables or passages of the source.

Test: Determination of logP-values by HPLC (EEC-Directive 79/831 Annex V. A8)
Text: Determination of logP-values was made according to EEC-Directive 79/831. Annex V. A8 by HPLC (gradient method, acetonitrile/0.1% aqueous phosphoric acid).

[1] = HPLC gradient method, acetonitrile/0.1% aqueous phosphoric acid

Row | log P | Compound | also measured
1 | 5.32 | CCCCCC[C@@H](C(=O)OC)[C@H](O)C[C@@]1(C(=O)OC)N=C(c2ccccc2)O[C@H]1C(C)C | 
2 | 5.56 | CCCCCC[C@H](C(=O)OC)[C@H](O)C[C@@]1(C(=O)OC)N=C(c2ccccc2)O[C@H]1C(C)C | 
3 | 5.48 | CCCCCC[C@@H](C(=O)OC)[C@@H](O)C[C@@]1(C(=O)OC)N=C(c2ccccc2)O[C@H]1C(C)C | 

The remaining lines, values behind:

Row | Compound | log P | also measured
4 | CCCCCC[C@H]1C(=O)N[C@](C(=O)O)([C@@H](O)C(C)C)[C@@]1(C)O |  | log P [1]: 1.86
5 | CCCCCC[C@H](C(=O)OC)[C@@H](O)C[C@@]1(C(=O)OC)N=C(c2ccccc2)O[C@H]1C(C)C | 5.93 | 
6 | CCCCCC[C@H]1C(=O)N[C@](C(=O)OC)([C@@H](O)C(C)C)[C@@]1(C)O |  | log P [1]: 2.16
7 | CCCCCC[C@H]1C(=O)N[C@@]2([C@@H](O)C(C)C)C(=O)O[C@@]12C [Example 8, (1R,4R,5S)-4-hexyl-1-[(1S)-1-hydroxy-2-methylpropyl]-5-methyl-6-oxa-2-azabicyclo[3.2.0]heptane-3,7-dione] |  | logP*) [1]: 2.87
8 | CCCCCC[C@@H]1C(=O)N[C@@]2([C@@H](O)C(C)C)C(=O)O[C@@]12C [Example 9, (1R,4S,5S)-4-hexyl-1-[(1S)-1-hydroxy-2-methylpropyl]-5-methyl-6-oxa-2-azabicyclo[3.2.0]heptane-3,7-dione] |  | logP*) [1]: 2.79
